Over roughly 33,000 sequences, “E-score (-0.5 to 0.5)” has its median near -0.012; the highest 2% begin near 0.29. This is one part of the list.
These sequences were tested against T1, Ybr033w (UniProt P38073) (assay: PBM E-score (8-mer binding enrichment) (E-score (-0.5 to 0.5)); higher = stronger / more preferred TF binding; most listed sequences are background and not binding sites). Details: protein concentration: 200 nM; construct: GST-full length.
T1 sequence: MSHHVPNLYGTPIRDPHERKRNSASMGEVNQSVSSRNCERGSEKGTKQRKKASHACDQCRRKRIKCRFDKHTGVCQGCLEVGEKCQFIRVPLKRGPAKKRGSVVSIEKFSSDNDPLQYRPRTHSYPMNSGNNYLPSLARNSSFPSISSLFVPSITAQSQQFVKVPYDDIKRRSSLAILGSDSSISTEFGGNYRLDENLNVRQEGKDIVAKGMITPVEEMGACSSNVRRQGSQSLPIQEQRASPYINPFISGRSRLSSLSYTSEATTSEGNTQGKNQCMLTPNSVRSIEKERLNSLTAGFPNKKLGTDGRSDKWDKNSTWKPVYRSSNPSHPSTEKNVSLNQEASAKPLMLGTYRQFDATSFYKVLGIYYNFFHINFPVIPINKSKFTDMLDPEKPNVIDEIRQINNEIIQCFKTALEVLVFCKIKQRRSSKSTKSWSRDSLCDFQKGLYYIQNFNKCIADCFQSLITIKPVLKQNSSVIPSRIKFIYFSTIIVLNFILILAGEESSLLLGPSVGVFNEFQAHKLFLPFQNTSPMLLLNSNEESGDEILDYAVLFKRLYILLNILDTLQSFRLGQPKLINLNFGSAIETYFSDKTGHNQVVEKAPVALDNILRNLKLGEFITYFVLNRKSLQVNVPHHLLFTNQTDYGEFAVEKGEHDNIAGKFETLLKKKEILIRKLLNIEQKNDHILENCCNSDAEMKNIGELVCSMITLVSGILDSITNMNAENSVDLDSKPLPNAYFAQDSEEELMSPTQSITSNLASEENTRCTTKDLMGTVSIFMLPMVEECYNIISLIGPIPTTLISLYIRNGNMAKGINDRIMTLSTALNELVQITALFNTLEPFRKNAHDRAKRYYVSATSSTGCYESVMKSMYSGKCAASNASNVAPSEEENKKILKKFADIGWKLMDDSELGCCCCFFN
Summary of the method: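 Detection of bound protein used fluorescent anti-GST, with scans normalised by masliner. The proteins were GST-tagged yeast transcription factors applied at about 100-200 nM to universal all-10-mer Agilent arrays made double-stranded by primer extension. Each ungapped eight-base word, pooled with its reverse complement, was scored with an E-score from the Universal PBM Analysis Suite.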

Row | Sequence | PBM E-score
1 | ACTTTTAT | 0.167
2 | GGGTAATA | 0.103
3 | ATCATTTG | 0.22
4 | TAGCGTGA | 0.00864
5 | TGGGTACA | -0.0517
6 | AATAAGAT | 0.142
7 | CCCCTACC | -0.257
8 | ACAAAAAG | 0.106
9 | ATGCTGAC | 0.0401
10 | GAAGTAGA | 0.238
11 | ACAAGCAT | 0.09
12 | AGCCACAG | -0.314
13 | TCACTGCA | 0.208
14 | TAAACGGA | 0.266
15 | CGATGCTC | -0.222
16 | CTTACTGA | 0.0283
17 | CGTTATGC | 0.0079
18 | CGGCCTAC | 0.00798
19 | ACTTTGTA | 0.275
20 | CCCGATAG | -0.119
21 | ATCTACAC | 0.132
22 | CAATTCCA | -0.0696
23 | CAGAAAGC | -0.0867
24 | ACGTCGAA | 0.0628
25 | GGTTTAAA | 0.0983

Row | Sequence | PBM E-score
26 | AAGTCCGT | -0.293
27 | GTGCACAA | -0.0193
28 | AGTACCGC | -0.0772
29 | ATGGTCGG | -0.0504
30 | ATTGTCTG | 0.221
31 | AGGCATAA | -0.0986
32 | CTGCACTA | 0.139
33 | CAATATAG | 0.115
34 | AAATTACT | 0.333
35 | CTGCTAGC | -0.137
36 | CTGAATTA | 0.219
37 | AGCGCAAT | 0.142
38 | AACTCTGA | 0.162
39 | AGATCTTG | -0.00564
40 | ACTAGGAC | 0.0302
41 | GAAAGTGA | -0.02
42 | AACCAGAA | 0.0437
43 | CCGACCAC | -0.0258
44 | ATATTTGC | 0.222
45 | AGCAGATC | 0.152
46 | ATCGCAGG | -0.0752
47 | GAGCGTGC | -0.0791
48 | AGACGCAA | 0.0687
49 | CGGGCGAG | -0.14
50 | ATCGCCTG | -0.364

Row | Sequence | PBM E-score
51 | AAATAACG | 0.232
52 | GCAGAGGC | -0.373
53 | GGGCAGAA | 0.161
54 | GGATTCTA | -0.0352
55 | GGATGTAA | 0.163
56 | ATTGAGAC | 0.147
57 | CACTTTAG | 0.112
58 | ATCTGTTC | 0.0791
59 | CTCGTAGC | -0.0753
60 | GGCTCAAC | -0.0831
61 | CATATCTA | 0.279
62 | TGTGCAAA | -0.0555
63 | CGTCTTAC | -0.0604
64 | CCCTTACG | -0.388
65 | CCGAAATC | 0.0136
66 | AGCGGGTA | -0.11
67 | CGTCTCCC | -0.199
68 | AACACGCA | 0.0222
69 | AGTACAAT | 0.302
70 | GCATGCGC | -0.0131
71 | AGACTTGA | 0.022
72 | CATGCCCC | -0.22
73 | TGTTGGAA | 0.193
74 | CCACGAGG | -0.0481
75 | AAATATAA | 0.305

Row | Sequence | PBM E-score
76 | CTGTCCAC | -0.0832
77 | ACTACAGC | -0.058
78 | CCGGGCGA | -0.226
79 | AAGCAGGG | -0.0605
80 | GCATAATA | 0.198
81 | AGGACGGA | -0.133
82 | AGCGTCGC | -0.0934
83 | ATGACACG | 0.0399
84 | AAACCGAG | -0.0114
85 | GGTGGGGA | 0.0759
86 | AAACTGTA | 0.174
87 | ACAATTTG | 0.132
88 | AAACGGCG | 0.0866
89 | CACTAAAC | 0.16
90 | AGTGTAAT | 0.125
91 | AGCGAGGA | -0.0245
92 | CCGGGCGC | -0.172
93 | CATACGGA | 0.00688
94 | CATGAAAG | 0.0847
95 | AGGGCAAA | -0.138
96 | ATGTGTTC | 0.194
97 | GCGCAAAC | -0.0469
98 | GCTGCAAC | -0.086
99 | GCCAGCAC | -0.127
100 | GTTAGGAA | 0.0919

Row | Sequence | PBM E-score
101 | TCGACGAA | 0.104
102 | CGCACCCG | 0.021
103 | TCCGGAAA | 0.298
104 | CACATGAG | -0.0611
105 | ATGCCCGC | -0.12
106 | ACTTAAAC | 0.267
107 | TAGACGCA | -0.0494
108 | CGAGCGCA | -0.0144
109 | CAACTACC | -0.0259
110 | GCCCTTTA | -0.199
111 | GCTTGTTA | 0.113
112 | ACCACCAT | -0.092
113 | AATAAGCT | 0.209
114 | GATTTAAA | -0.00582
115 | CGTCTTGC | -0.00231
116 | TACTTTAA | 0.103
117 | ACAAGGGG | -0.316
118 | TTCACGAA | -0.109
119 | ATGGCTTA | 0.00309
120 | ACCTATCG | 0.00016
121 | GGCCGATA | -0.0928
122 | ATCAAGAT | 0.151
123 | AGGGCTTC | -0.0739
124 | GCCATTAC | -0.0208
125 | CCAATATA | -0.0772

Row | Sequence | PBM E-score
126 | CATTCCGG | -0.0411
127 | CAGGCCCC | -0.354
128 | GCTATAGC | -0.176
129 | CCCCAGTC | -0.215
130 | CAGCAATA | 0.118
131 | AAGCTAGG | 0.00023
132 | TCTATAAA | 0.2
133 | CCCATGCA | -0.00219
134 | ACAACTAT | 0.203
135 | CATCTTAC | -0.0971
136 | AGCATAGG | -0.221
137 | ACACTAGA | 0.17
138 | CGGATATC | 0.0386
139 | ATAGTCGA | 0.144
140 | ACGATGGA | 0.00776
141 | AAGTAGGC | -0.00388
142 | AGATGCCG | -0.0783
143 | AGGGGATG | -0.126
144 | ATTGATGA | 0.158
145 | CGGAACCA | 0.141
146 | CGGCCCAA | -0.226
147 | TTAGTAAA | 0.301
148 | ACCGCGAG | -0.118
149 | GACTAGCC | -0.205
150 | ACATTTTG | 0.198

Row | Sequence | PBM E-score
151 | ACAGAAGA | 0.0639
152 | GTACGCTA | -0.178
153 | ACCCACAT | 0.0767
154 | CCACAAAG | 0.0891
155 | CCGAATAA | 0.293
156 | ACGGTGTG | -0.0861
157 | CAACAACC | 0.128
158 | CGAGCCAC | -0.374
159 | CCTCTGAC | -0.0306
160 | CTAAGTTA | 0.0602
161 | AAGATCAT | 0.146
162 | TCCTCAGA | -0.0721
163 | CGCGCAAG | 0.0798
164 | GGCACCCC | -0.232
165 | AGCCGAGA | -0.112
166 | AACAGAGC | -0.0995
167 | CTGCGAAG | -0.142
168 | ATAGACGC | 0.0493
169 | ATCAGGAA | 0.149
170 | CCGCTGCA | -0.105
171 | CTGTGACA | -0.0684
172 | AACATCTG | 0.0259

From the supplement of paper PMC3334620
